# Read-outs that look alike come from different tables or passages of the source.
# Columns and labels:
# [1] = target: influenza virus neuraminidase (NA) (Influenza A virus, UniProt P03470); assay: Neuraminidase inhibition assay (fluorimetric, MUN substrate), A/H1N1/WSN/33; format: biochemical, influenza A virus A/H1N1/WSN/33; details: virus suspension A/WSN/33 H1N1
# [2] = system: influenza virus neuraminidase (NA); details: 500 μM inhibitor; virus suspension A/Udorn/72 H3N2
# [3] = MES buffer pH 6.5, 37° C., 3 independent experiments, read-out: IC50 (μM) A/WSN/33 H1N1
# Chain of influenza virus neuraminidase (NA) (P03470 whole entry, looked up): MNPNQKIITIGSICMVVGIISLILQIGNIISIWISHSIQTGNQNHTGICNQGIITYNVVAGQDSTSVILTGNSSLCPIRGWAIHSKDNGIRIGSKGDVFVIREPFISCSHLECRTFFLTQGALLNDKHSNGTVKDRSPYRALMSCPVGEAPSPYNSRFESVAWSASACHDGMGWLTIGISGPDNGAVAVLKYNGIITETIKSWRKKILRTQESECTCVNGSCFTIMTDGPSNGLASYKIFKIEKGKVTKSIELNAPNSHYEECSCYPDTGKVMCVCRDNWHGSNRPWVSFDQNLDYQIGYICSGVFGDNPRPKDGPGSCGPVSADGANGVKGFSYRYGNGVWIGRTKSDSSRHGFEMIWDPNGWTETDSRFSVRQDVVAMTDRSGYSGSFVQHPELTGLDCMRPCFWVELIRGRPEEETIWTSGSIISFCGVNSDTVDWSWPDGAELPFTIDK
compound,measurement,setting,value
"CSCC[C@H](Nc1ccc([N+](=O)[O-])cc1[N+](=O)[O-])C(=O)O [DNP-Met, dinitrophenyl methionine]",% inhibition at 500 μM A/WSN/33 H1N1,[1]; 500 μM inhibitor,≧40%
same,% inhibition at 500 μM A/Udorn/72 H3N2,[2],>25%
"NC(=O)CC[C@H](Nc1ccc([N+](=O)[O-])cc1[N+](=O)[O-])C(=O)O [DNP-Gln, dinitrophenyl glutamine]",% inhibition at 500 μM A/WSN/33 H1N1,[1]; 500 μM inhibitor,>25%
same,% inhibition at 500 μM A/Udorn/72 H3N2,[2],>25%
"CC[C@H](C)[C@H](Nc1ccc([N+](=O)[O-])cc1C#N)C(=O)O [NCP-Iso, (2S,3S)-2-(2-cyano-4-nitrophenylamino)-3-methylpentanoic acid]",inhibition at 500 µM,[1]; 500 μM inhibitor,≥ 40%
same,% inhibition at 500 μM A/Udorn/72 H3N2,[2],>25%
nitrocyanophenyl alanine [NCP-Ala],% inhibition at 500 μM A/WSN/33 H1N1,[1]; 500 μM inhibitor,>25%
same,% inhibition at 500 μM A/Udorn/72 H3N2,[2],>25%
"O=C(O)CNc1ccc([N+](=O)[O-])cc1[N+](=O)[O-] [DNP-Gly, dinitrophenyl glycine]",% inhibition at 500 μM A/WSN/33 H1N1,[1]; 500 μM inhibitor,>25%
same,% inhibition at 500 μM A/Udorn/72 H3N2,[2],>25%
"CC(C)[C@H](Nc1ccc([N+](=O)[O-])cc1[N+](=O)[O-])C(=O)O [DNP-Val, dinitrophenyl valine]",IC50,[1]; [3],< 700 µM
same,% inhibition at 500 μM A/Udorn/72 H3N2,[2],>25%
"NC(Cc1ccc(Oc2ccc([N+](=O)[O-])cc2[N+](=O)[O-])cc1)C(=O)O (centres unmarked) [DNP-Tyr*, dinitrophenyl tyrosine]",IC50,"[1]; mM, read-out: IC50 A/WSN/33 H1N1",> 1000 µM
"O=C(O)C1CCCN1c1ccc([N+](=O)[O-])cc1[N+](=O)[O-] (centres unmarked) [DNP-Pro*, dinitrophenyl proline]",IC50,[1]; [3],< 700 µM
dinitrophenyl histidine [DNP-His*],IC50,[1]; [3],< 700 µM
same,% inhibition at 500 μM A/Udorn/72 H3N2,[2],≧50%
"NC(N)=NCCCC(Nc1ccc([N+](=O)[O-])cc1[N+](=O)[O-])C(=O)O (centres unmarked) [DNP-Arg, dinitrophenyl arginine]",% inhibition at 500 μM A/WSN/33 H1N1,[1]; 500 μM inhibitor,>25%
same,% inhibition at 500 μM A/Udorn/72 H3N2,[2],>25%
"C[C@H](Nc1ccc([N+](=O)[O-])cc1[N+](=O)[O-])C(=O)O [DNP-Ala, dinitrophenyl alanine]",% inhibition at 500 μM A/WSN/33 H1N1,[1]; 500 μM inhibitor,≧40%
same,% inhibition at 500 μM A/Udorn/72 H3N2,[2],>25%
nitrocyanophenyl valine [NCP-Val],% inhibition at 500 μM A/WSN/33 H1N1,[1]; 500 μM inhibitor,>25%
same,% inhibition at 500 μM A/Udorn/72 H3N2,[2],>25%
"O=C(O)[C@H](CO)Nc1ccc([N+](=O)[O-])cc1[N+](=O)[O-] [DNP-Ser, dinitrophenyl serine]",IC50,[1]; [3],< 700 µM
same,% inhibition at 500 μM A/Udorn/72 H3N2,[2],≧50%
"O=C(O)C(Cc1c[nH]c2ccccc12)Nc1ccc([N+](=O)[O-])cc1[N+](=O)[O-] (centres unmarked) [DNP-Trp, dinitrophenyl tryptophan]",% inhibition at 500 μM A/WSN/33 H1N1,[1]; 500 μM inhibitor,≧40%
same,% inhibition at 500 μM A/Udorn/72 H3N2,[2],≧50%

# Source: patent publication US20110092557A1, “Neuraminidase Inhibitors And Compositions And Methods Related Thereto” ([…]., priority 2008, published 2011)
